Results are given in words; binding and its absence hold for the method and conditions named. Binding seen in cells or lysates may run through a third protein. Some entries that bind do so weakly or less than the wild type. For some assays here: Sequences can lack the tags named with a protein.
Columns and labels:
[1] = target: His6-SUMO-Lark fusion protein (full-length Lark) (Drosophila) (UniProt Q94901); assay: pull-down; His6-SUMO fusion proteins (about 5 micrograms) on NTA-Zn2+ agarose beads, casein-blocked, incubated 2 h at 4° with BG3 cell nuclear extract (about 400 micrograms; mock, Rad21-depleted, or pre-treated with RNase A and RNase T1); ionic strength >190 mM, 0.83% Triton X-100, 16.7 mM imidazole, 2% BSA; western blot for Nipped-B and Rad21; only the target purified
[2] = target: T1, His6-SUMO-TBPH fusion protein (full-length TBPH, Tar DNA binding protein homolog) (Drosophila) (UniProt O97468); assay: as above
T1 sequence: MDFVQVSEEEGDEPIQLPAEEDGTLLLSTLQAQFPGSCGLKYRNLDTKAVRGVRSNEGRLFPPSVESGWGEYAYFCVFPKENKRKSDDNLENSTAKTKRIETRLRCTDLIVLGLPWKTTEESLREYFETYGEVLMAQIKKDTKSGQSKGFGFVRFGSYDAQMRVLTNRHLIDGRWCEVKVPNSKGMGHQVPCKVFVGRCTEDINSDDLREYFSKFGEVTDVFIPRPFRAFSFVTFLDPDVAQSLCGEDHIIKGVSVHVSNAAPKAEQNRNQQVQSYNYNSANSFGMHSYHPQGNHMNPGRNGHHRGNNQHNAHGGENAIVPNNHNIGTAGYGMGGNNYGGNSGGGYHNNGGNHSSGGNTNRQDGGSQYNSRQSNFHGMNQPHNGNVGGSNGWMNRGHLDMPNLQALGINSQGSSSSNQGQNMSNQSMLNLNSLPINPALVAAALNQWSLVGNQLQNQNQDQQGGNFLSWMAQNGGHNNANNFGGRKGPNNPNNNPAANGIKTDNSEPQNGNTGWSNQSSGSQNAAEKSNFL

Amino acid sequences for entries named in this document (tags omitted).
UniProt Q94901: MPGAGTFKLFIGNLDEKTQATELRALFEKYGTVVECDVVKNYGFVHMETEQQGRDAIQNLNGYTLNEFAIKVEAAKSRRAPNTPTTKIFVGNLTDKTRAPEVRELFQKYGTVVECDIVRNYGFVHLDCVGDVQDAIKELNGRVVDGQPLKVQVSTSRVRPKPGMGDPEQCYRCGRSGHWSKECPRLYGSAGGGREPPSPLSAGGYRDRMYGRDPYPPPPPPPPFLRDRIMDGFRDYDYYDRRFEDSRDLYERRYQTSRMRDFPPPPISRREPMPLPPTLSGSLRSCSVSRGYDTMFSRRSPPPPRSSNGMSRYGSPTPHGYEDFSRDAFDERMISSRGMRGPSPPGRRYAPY
UniProt Q7PLI2: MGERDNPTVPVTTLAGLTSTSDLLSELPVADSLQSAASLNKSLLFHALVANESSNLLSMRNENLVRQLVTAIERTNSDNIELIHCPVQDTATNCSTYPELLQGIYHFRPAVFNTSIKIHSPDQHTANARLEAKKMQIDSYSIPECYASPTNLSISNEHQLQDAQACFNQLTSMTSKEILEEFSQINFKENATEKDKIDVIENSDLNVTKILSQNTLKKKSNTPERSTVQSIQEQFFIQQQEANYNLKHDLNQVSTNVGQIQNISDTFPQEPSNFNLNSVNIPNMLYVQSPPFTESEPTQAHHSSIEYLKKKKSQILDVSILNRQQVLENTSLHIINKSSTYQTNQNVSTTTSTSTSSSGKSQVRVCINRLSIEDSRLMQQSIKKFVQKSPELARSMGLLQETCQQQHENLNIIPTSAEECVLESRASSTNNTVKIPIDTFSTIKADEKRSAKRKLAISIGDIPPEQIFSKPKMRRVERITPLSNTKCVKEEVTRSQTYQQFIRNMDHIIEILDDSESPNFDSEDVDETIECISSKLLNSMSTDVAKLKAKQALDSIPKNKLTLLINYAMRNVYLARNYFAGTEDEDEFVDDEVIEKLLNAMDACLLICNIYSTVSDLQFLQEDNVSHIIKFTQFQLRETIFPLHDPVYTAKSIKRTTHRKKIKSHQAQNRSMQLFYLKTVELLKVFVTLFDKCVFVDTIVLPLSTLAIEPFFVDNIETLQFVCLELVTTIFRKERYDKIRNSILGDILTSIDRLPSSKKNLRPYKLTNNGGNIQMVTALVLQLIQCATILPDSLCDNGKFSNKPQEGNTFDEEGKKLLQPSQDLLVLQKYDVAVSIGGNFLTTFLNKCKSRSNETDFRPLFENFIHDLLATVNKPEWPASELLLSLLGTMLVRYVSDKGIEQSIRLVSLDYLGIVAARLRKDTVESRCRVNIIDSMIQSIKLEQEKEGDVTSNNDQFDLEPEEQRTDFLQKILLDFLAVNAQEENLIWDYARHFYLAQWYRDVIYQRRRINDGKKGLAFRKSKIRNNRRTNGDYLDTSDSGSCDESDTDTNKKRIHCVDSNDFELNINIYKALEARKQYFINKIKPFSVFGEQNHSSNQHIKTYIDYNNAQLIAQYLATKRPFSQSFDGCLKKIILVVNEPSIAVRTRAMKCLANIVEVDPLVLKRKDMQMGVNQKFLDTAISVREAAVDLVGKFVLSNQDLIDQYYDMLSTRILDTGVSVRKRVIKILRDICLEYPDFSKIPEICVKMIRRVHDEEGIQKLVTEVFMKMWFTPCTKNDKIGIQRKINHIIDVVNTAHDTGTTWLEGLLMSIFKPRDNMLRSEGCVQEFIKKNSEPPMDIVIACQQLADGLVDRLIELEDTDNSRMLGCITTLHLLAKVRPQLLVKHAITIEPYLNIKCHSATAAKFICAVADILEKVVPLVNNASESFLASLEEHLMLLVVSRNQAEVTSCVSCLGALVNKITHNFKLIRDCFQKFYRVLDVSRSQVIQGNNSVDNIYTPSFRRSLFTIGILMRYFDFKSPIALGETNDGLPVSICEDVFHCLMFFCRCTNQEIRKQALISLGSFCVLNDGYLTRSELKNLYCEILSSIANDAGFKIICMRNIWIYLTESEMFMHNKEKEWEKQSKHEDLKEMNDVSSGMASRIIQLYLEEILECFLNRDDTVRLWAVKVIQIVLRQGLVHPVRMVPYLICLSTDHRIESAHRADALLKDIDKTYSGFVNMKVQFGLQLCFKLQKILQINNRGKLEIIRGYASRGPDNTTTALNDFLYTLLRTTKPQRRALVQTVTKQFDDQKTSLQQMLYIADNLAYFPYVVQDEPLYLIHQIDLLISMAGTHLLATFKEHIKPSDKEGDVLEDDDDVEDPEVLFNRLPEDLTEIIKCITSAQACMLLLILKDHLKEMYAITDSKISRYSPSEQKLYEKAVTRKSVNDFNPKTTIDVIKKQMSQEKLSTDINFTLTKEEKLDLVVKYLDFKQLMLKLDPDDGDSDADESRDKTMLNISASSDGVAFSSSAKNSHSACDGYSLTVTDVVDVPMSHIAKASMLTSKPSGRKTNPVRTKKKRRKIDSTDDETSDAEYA

[3] = target: native Lark (Drosophila (endogenous in BG3 cells)) (UniProt Q94901); assay: co-IP; BG3 cell nuclear extract (about 300 micrograms) diluted 1:3 in Buffer 2, nominal ionic strength 183.4 mM, 0.133% NP-40; antibodies overnight at 4°, Protein A agarose, five washes; western blot; with or without 50 micrograms per mL ethidium bromide
[4] = target: T2, native TBPH (Drosophila (endogenous in BG3 cells)) (UniProt O97468); assay: as above
T2 sequence: T1 sequence

[5] = target: Nipped-B (Drosophila (endogenous in BG3 cells)) (UniProt Q7PLI2); assay: as above

Nipped-B (from UniProt Q7PLI2 1-2077)
binding [1]: binds
binding [2]: binds
binding [3]: binds

native Lark (from UniProt Q94901 1-352)
binding [4]: no binding

B1: native TBPH (protein, UniProt O97468 1-531)
chain: T1 sequence
binding [5]: binds

From article PMC5035082
